Experimental data reported in the BET-seq Pho4 binding data (Le et al. 2018).
The other results are listed elsewhere or left out. These are noisy estimates, calculated here from bound and input reads.

Target: T1, Pho4 (S. cerevisiae) (UniProt P07270)
T1 sequence: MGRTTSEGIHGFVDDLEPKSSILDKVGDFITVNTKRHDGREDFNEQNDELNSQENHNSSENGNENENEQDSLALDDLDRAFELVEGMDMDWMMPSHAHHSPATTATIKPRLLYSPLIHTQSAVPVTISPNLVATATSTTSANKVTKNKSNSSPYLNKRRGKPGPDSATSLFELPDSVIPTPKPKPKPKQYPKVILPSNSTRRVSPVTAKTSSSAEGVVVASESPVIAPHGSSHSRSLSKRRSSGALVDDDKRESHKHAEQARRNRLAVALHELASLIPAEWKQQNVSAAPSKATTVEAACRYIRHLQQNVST
Experiment: relative binding free energy (BET-seq); higher = weaker binding
Details: reference: library average

Sequence | relative binding free energy [kcal/mol]
CTAATCACGTGGGTAT | -0.01
GAGACCACGTGGGGGG | -0.03
GATGTCACGTGTCGTT | 0.26
ACGTTCACGTGTTGGA | 0.33
GATGACACGTGTGGGC | 0.08
GGTGTCACGTGCGAGC | 0.14
TATTGCACGTGAGAGT | 0.29
GAAGTCACGTGAAGGT | 0.4
CTTTCCACGTGGGTGT | -0.16
GGTGGCACGTGATTGG | 0.17
AGTATCACGTGGATTG | 0.25
AATGGCACGTGTAGCG | -0.07
TTAGACACGTGTGGCG | 0.07
GTGTGCACGTGCTGGG | -0.1
TTTTTCACGTGAAGTA | 0.4
AAGGTCACGTGTACGT | 0.13
CGGTGCACGTGGCTAT | 0.06
TAATGCACGTGGAGAG | -0.05
GATGGCACGTGGCTGG | -0.01
AGTTGCACGTGATATT | 0.03
GTATACACGTGGGGTT | -0.05
AGAGTCACGTGTGATG | 0.24
TTTGCCACGTGAGCGT | -0.03

Sequence | relative binding free energy [kcal/mol]
TGGTACACGTGTTATC | 0.18
AGAGGCACGTGGCGAT | -0.22
AAGTGCACGTGTGGAT | -0.2
TATTGCACGTGTGACT | -0.05
TGTGCCACGTGTTTGT | -0.2
TAAATCACGTGGTAGA | 0.12
AGAAGCACGTGAGGTT | 0.23
TGAGGCACGTGGAACG | -0.13
GTAGTCACGTGAGGGT | 0.37
TAAGTCACGTGTTCTG | 0.13
AGGTACACGTGATATT | 0.11
TGAATCACGTGTTATA | 0.15
TAAGGCACGTGTAGAT | 0.08
TGCGGCACGTGAAATT | 0.14
TATATCACGTGCTAGG | 0.04
TACTGCACGTGATAGT | 0.19
ATAGTCACGTGTAATG | 0.17
ATTGTCACGTGCAATT | 0.16
CGTTGCACGTGATGGG | 0.08
TTTGGCACGTGATGCG | -0.07
AGGGCCACGTGAGATG | 0.09
TTGTGCACGTGGGAGC | -0.1
GTTTTCACGTGGCGTC | 0.35

Sequence | relative binding free energy [kcal/mol]
TAGTGCACGTGTGGGT | 0.01
TTTTACACGTGTAAGT | 0.16
AGGGACACGTGGTATG | -0.15
CGTGTCACGTGGTTGT | 0.06
GTTATCACGTGTCTAT | 0.27
TTTCACACGTGAGAGT | 0.4
TAATACACGTGTTGTG | 0.04
TGATTCACGTGGCTGA | 0.19
GGCTGCACGTGGCGAG | -0.02
GGTAGCACGTGGTTGC | 0.02
AGTATCACGTGGTCAG | 0.07
AGTTGCACGTGGGTTC | -0.05
TTATGCACGTGGGGTG | -0.21
GTGGACACGTGATTGG | 0.18
GTACGCACGTGGATTT | 0.05
GCTTTCACGTGGGTAT | 0.19
GTTACCACGTGAGGAG | 0.33
ATTGCCACGTGGGAGT | -0.16
GTAAGCACGTGGTGGA | 0.11
AGTGACACGTGTATGT | -0.15
GGTTTCACGTGTATAT | 0.32
GTTCTCACGTGAATTT | 0.42
GTTTTCACGTGAGCAG | 0.48

Sequence | relative binding free energy [kcal/mol]
TGGTGCACGTGTACTT | 0.07
AGGATCACGTGTTGTT | 0.07
ATTCTCACGTGGGGTA | 0.03
ATGTGCACGTGCCAGG | -0.12
CGTGGCACGTGGGGAA | -0.23
ATTGACACGTGGATAG | 0.02
AAGTGCACGTGTGGTC | -0.01
GGTCGCACGTGCTTGT | 0.11
TCAATCACGTGTTGTG | 0.09
TTGGACACGTGTAGAG | 0.05
GTAATCACGTGTAATG | 0.24
TATATCACGTGACGTT | 0.14
TTAGGCACGTGAGTTG | 0.06
TGTGACACGTGACATG | 0
TTGGTCACGTGCTTAG | -0.04
TCGTTCACGTGGGCGT | 0.21
TGCGACACGTGAAGGG | 0.31
GTATGCACGTGGGAGC | -0.13
GTATCCACGTGTAAGG | 0.27
TGCTTCACGTGGTTTA | 0.22
ACTATCACGTGAGGGG | 0.22
TAACTCACGTGTGGGT | 0.37
GACGGCACGTGGTATG | -0.11

Sequence | relative binding free energy [kcal/mol]
GGGAACACGTGTGTAG | 0.05
TGCTTCACGTGAGGAG | 0.27
GGCGTCACGTGGGGTA | -0.18
TTTATCACGTGTTAGG | 0.18
TTTGACACGTGCGGGA | -0.05
GATGTCACGTGTTATC | 0.18
GGATGCACGTGTAGGG | -0.05
TATATCACGTGGTTTT | 0.19
TGGGGCACGTGTGGAC | 0.03
TGTAGCACGTGATATT | 0.08
TAGGGCACGTGCGGAG | -0.26
TGGAGCACGTGGGTAC | -0.13
GGAGACACGTGTGGTG | -0.04
GGAAACACGTGTGTAG | 0.14
AGTAACACGTGGTGCA | -0.13
TGTGGCACGTGTGACC | 0.08
TAATACACGTGTTAAG | 0.11
GGAGTCACGTGGGTGT | -0.02
GAAATCACGTGGTAGG | 0.15
TTGTGCACGTGGCGAG | -0.16
TAGCGCACGTGTTAGT | -0.06
TTAATCACGTGATATA | 0.19
GGCGTCACGTGGTATA | 0.06
